Experimental data reported in publication PMC5762908 (Scientific Reports, 2018).

Assays:
[1] = tested on: cancer multicellular spheroids formed from HCT116 cells; assay: 3D multicellular spheroids culture, alamar blue assay; assay type: cell-based, human; details: 3D multicellular spheroids, alamar blue assay, 72 h
Procedure: Cell viability was quantified using the alamar blue assay, according to Ahmed et al.[28]. Cells were inserted in 96-well plates for all experiments (7 × 10^4 cells/mL for adherent cells or 3 × 10^5 cells/mL for suspended cells in 100 μL of medium). After 24 h, the complex was dissolved in dimethyl sulfoxide (DMSO, Sigma-Aldrich co.) and added to each well and incubated for 72 h. […] Four (for cell lines) or 24 h (for PBMCs) before the end of incubation, 20 μL of a stock solution (0.312 mg/mL) of the alamar blue (resazurin, Sigma-Aldrich Co.) were added to each well. Absorbance at 570 nm and 600 nm was measured using the SpectraMax 190 Microplate Reader (Molecular Devices, Sunnyvale, CA, EUA), and the drug effect was quantified as the percentage of control absorbance.
Briefly, 100 μL of a solution of cells (0.5 × 10^6 cells/mL) were inserted in 96-well plate with a cell-repellent surface (Greiner Bio-One; Kremsmünster, Austria) and cultured in complete medium plus 3% matrigel (BD Biosciences; San Jose, CA, EUA). Spheroids with stable structures had formed after three days. Then, the spheroids were exposed to a range of drug concentrations for 72 h, after which the cell viability was quantified by alamar blue assay as described above.

HCT116 cells [2] = details: HCT116, trypan blue; for Reduction of the number of viable cells: 4 μM; for Number of viable cells (in words): 24 and 48 h, DOX 1 µM, OXA 2.5 µM
Procedure: TBE assay was used to confime the cytotoxic effect of the complex tested. The number of viable cells and non-viable cells (take up trypan blue) were counted. Briefly, 90 μL was removed from the cell suspension and 10 μL of trypan blue (0.4%) was added. Cell counting was performed using a light microscope with a hemocytometer filled with an aliquot of the homogenized cell suspension.

HCT116 cells [3] = assay: Annexin V-FITC/PI staining assay, flow cytometry; assay type: cell-based, human; details: HCT116, annexin V-FITC/PI, 24 and 48 h; 5-FU at 4 μM
Procedure: For apoptosis detection, we used the FITC Annexin V Apoptosis Detection Kit I (BD Biosciences), and the analysis was performed according to the manufacturer’s instructions. The cell fluorescence was determined by flow cytometry as described above. The protection assays using the caspase-3 inhibitor (Z-DEVD-FMK, BD Biosciences) and the antioxidant NAC (Sigma-Aldrich Co.) were performed. In brief, the cells were pre-treated for 2 h with 50 µM Z-DEVD-FMK and for 1 h with 5 mM NAC, followed by incubation with 4 µM of the complex for 48 h. The cells were then trypsinized and the FITC Annexin V Apoptosis Detection assay was conducted as described above.

[4] = tested on: caspase-3 in HCT116 cells; assay: Caspase-3 activation assay, colorimetric, DEVD-pNA substrate; assay type: cell-based, human; details: HCT116, 48 h; 5-FU at 4 μM
HCT116 cells [5] = assay: Mitochondrial transmembrane potential, rhodamine 123, flow cytometry; assay type: cell-based, human; details: HCT116, rhodamine 123, 24 h; 5-FU at 4 μM
[6] = tested on: MCF7 (human breast carcinoma)
[7] = tested on: HCT116 (human colon carcinoma)
[8] = tested on: HepG2 (human hepatocellular carcinoma)
[9] = tested on: SCC-9 (human oral squamous cell carcinoma)
[10] = tested on: HSC-3 (human oral squamous cell carcinoma)
[11] = tested on: HL-60 (human promyelocytic leukemia)
[12] = tested on: K-562 (human chronic myelogenous leukemia)
B16-F10 (mouse melanoma) [13] = tested on: B16-F10 (mouse melanoma)
HCT116 cells [14] = details: for DNA content (%) G0/G1 / DNA content (%) G2/M / DNA content (%) Sub-G0/G1 / DNA content (%) S: HCT116 cells
[15] = tested on: MCF7 (human breast carcinoma); assay: cells; details: MCF7, 72 h, read-out: IC50 in µM, MCF7
[16] = tested on: HCT116 (human colon carcinoma); assay: cells; details: HCT-116, 72 h, read-out: IC50 in µM, HCT116
[17] = tested on: HepG2 (human hepatocellular carcinoma); assay: cells; details: HepG2, 72 h, read-out: IC50 in µM, HepG2
[18] = tested on: SCC-9 (human oral squamous cell carcinoma); assay: cells; details: SCC-9, 72 h, read-out: IC50 in µM, SCC9
[19] = tested on: HSC-3 (human oral squamous cell carcinoma); assay: cells; details: HSC-3, 72 h, read-out: IC50 in µM, HSC3
[20] = tested on: HL-60 (human promyelocytic leukemia); assay: cells; details: HL-60, 72 h, read-out: IC50 in µM, HL-60
[21] = tested on: K-562 (human chronic myelogenous leukemia); assay: cells; details: K562, 72 h, read-out: IC50 in µM, K562
B16-F10 (mouse melanoma) [22] = assay: cells; details: B16-F10, 72 h, read-out: IC50 in µM, B16-F10

SMILES | IC50 ([1]; Homo sapiens, HCT-116) | Selectivity index (SI) ([6]; SI = IC50[MRC-5]/IC50[MCF7]) | Selectivity index (SI) ([6]; SI = IC50[PBMC]/IC50[MCF7]) | Selectivity index (SI) ([7]; SI = IC50[MRC-5]/IC50[HCT116]) | Selectivity index (SI) ([8]; SI = IC50[MRC-5]/IC50[HepG2]) | Selectivity index (SI) ([8]; SI = IC50[PBMC]/IC50[HepG2]) | Selectivity index (SI) ([9]; SI = IC50[MRC-5]/IC50[SCC-9]) | Selectivity index (SI) ([9]; SI = IC50[PBMC]/IC50[SCC-9]) | Selectivity index (SI) ([10]; SI = IC50[MRC-5]/IC50[HSC-3]) | Selectivity index (SI) ([10]; SI = IC50[PBMC]/IC50[HSC-3]) | Selectivity index (SI) ([11]; SI = IC50[MRC-5]/IC50[HL-60]) | Selectivity index (SI) ([11]; SI = IC50[PBMC]/IC50[HL-60]) | Selectivity index (SI) ([12]; SI = IC50[MRC-5]/IC50[K-562]) | Selectivity index (SI) ([12]; SI = IC50[PBMC]/IC50[K-562]) | Selectivity index (SI) (B16-F10 (mouse melanoma) [13]; SI = IC50[MRC-5]/IC50[B16-F10]) | Selectivity index (SI) (B16-F10 (mouse melanoma) [13]; SI = IC50[PBMC]/IC50[B16-F10]) | IC50 [15] | IC50 [16] | IC50 [17] | IC50 [18] | further results
O=c1[nH]cc(F)c(=O)[nH]1 [5-FU, 5-fluorouracil] | > 192 µM | 4.1 | 5.5 | 14.1 | 44.5 | 60 | 0.5 | 0.6 | 3.6 | 4.8 | 4.6 | 6.2 | 3 | 4 | 16.5 | 22.3 | 14.1 µM | 4.1 µM | 1.3 µM | 127 µM | Reduction of the number of viable cells (HCT116 cells [2]; 24 h): 56.6%; Reduction of the number of viable cells (HCT116 cells [2]; 48 h): 73.2%; Early and late apoptotic cells (HCT116 cells [3]): did not induce increasing in the early and late apoptosis; Caspase-3 activation [4]: not affected; Mitochondrial membrane potential (depolarization) (HCT116 cells [5]): not affected; Selectivity index (SI) ([7]; SI = IC50[PBMC]/IC50[HCT116]): 19; DNA content (%) G0/G1 (HCT116 cells [14]; 24 h incubation, 4 µM): 37.7 ± 1.8%; DNA content (%) G2/M (HCT116 cells [14]; 24 h incubation, 4 µM): 16.9 ± 1.1%; DNA content (%) Sub-G0/G1 (HCT116 cells [14]; 24 h incubation, 4 µM): 11.5 ± 4.6%; DNA content (%) G0/G1 (HCT116 cells [14]; 48 h incubation, 4 µM): 28.9 ± 3.9 %; DNA content (%) G2/M (HCT116 cells [14]; 48 h incubation, 4 µM): 17.3 ± 1.2%; DNA content (%) S (HCT116 cells [14]; 48 h incubation, 4 µM): 31.8 ± 1.5 %; DNA content (%) Sub-G0/G1 (HCT116 cells [14]; 48 h incubation, 4 µM): 18.1 ± 3.0%; IC50 [19]: 16.3 µM; IC50 [20]: 12.6 µM; IC50 [21]: 19.4 µM; IC50 (B16-F10 (mouse melanoma) [22]): 3.5 µM
O=C1[O][Pt]2([NH][C@@H]3CCCC[C@H]3[NH]2)[O]C1=O [OXA, oxaliplatin] |  |  |  |  | 0.9 | 8.3 |  |  |  |  | 2.8 | 24.8 | 1.2 | 10.3 | 2 | 17.7 |  |  |  |  | IC50 [1]: 4.6 µM; Number of viable cells (in words) (HCT116 cells [2]): reduced the number of viable cells; IC50 ([6]; read-out: IC50 in µM, MCF7, alamar blue assay, 72 h incubation, 2D culture): 6 µM; IC50 ([7]; read-out: IC50 in µM, HCT116, alamar blue assay, 72 h incubation, 2D culture): 4.3 µM; IC50 ([8]; read-out: IC50 in µM, HepG2, alamar blue assay, 72 h incubation, 2D culture): 1.5 µM; IC50 ([10]; read-out: IC50 in µM, HSC3, alamar blue assay, 72 h incubation, 2D culture): 3.4 µM; IC50 ([11]; read-out: IC50 in µM, HL-60, alamar blue assay, 72 h incubation, 2D culture): 0.5 µM; IC50 ([12]; read-out: IC50 in µM, K562, alamar blue assay, 72 h incubation, 2D culture): 1.2 µM; IC50 (B16-F10 (mouse melanoma) [13]; read-out: IC50 in µM, B16-F10, alamar blue assay, 72 h incubation, 2D culture): 0.7 µM; Cell cycle phase accumulation / arrest, in words (HCT116 cells [14]): cell cycle arrest at the phase G2/M; DNA content (%) G0/G1 (HCT116 cells [14]; 24 h incubation, 2.5 µM): 32.4 ± 3.7%; DNA content (%) G2/M (HCT116 cells [14]; 24 h incubation, 2.5 µM): 41.6 ± 1.6 %; DNA content (%) S (HCT116 cells [14]; 24 h incubation, 2.5 µM): 13.5 ± 3.1%; DNA content (%) Sub-G0/G1 (HCT116 cells [14]; 24 h incubation, 2.5 µM): 8.8 ± 3.5%; DNA content (%) G0/G1 (HCT116 cells [14]; 48 h incubation, 2.5 µM): 36.2 ± 2.6%; DNA content (%) G2/M (HCT116 cells [14]; 48 h incubation, 2.5 µM): 38.0 ± 3.4%; DNA content (%) S (HCT116 cells [14]; 48 h incubation, 2.5 µM): 7.6 ± 0.4%; DNA content (%) Sub-G0/G1 (HCT116 cells [14]; 48 h incubation, 2.5 µM): 17.7 ± 1.9%
COc1cccc2c1C(=O)c1c(O)c3c(c(O)c1C2=O)C[C@@](O)(C(=O)CO)C[C@@H]3O[C@H]1C[C@H](N)[C@H](O)[C@H](C)O1 [DOX, Doxorubicin] | 3.5 µM | 1.1 | 3.6 | 3.2 | 5.3 | 17 | 4 | 12.8 | 2 | 6.4 | 3.2 | 10.2 | 8 | 25.5 | 8 | 25.5 | 1.4 µM | 0.5 µM | 0.3 µM | 0.4 µM | Number of viable cells (in words) (HCT116 cells [2]): reduced the number of viable cells; DNA content (%) G0/G1 (HCT116 cells [14]; 24 h incubation, 1 µM): 28.0 ± 6.3%; DNA content (%) G2/M (HCT116 cells [14]; 24 h incubation, 1 µM): 44.1 ± 3.4 %; DNA content (%) S (HCT116 cells [14]; 24 h incubation, 1 µM): 10.0 ± 2.5%; DNA content (%) Sub-G0/G1 (HCT116 cells [14]; 24 h incubation, 1 µM): 9.7 ± 2.5%; DNA content (%) G0/G1 (HCT116 cells [14]; 48 h incubation, 1 µM): 22.5 ± 4.0 %; DNA content (%) G2/M (HCT116 cells [14]; 48 h incubation, 1 µM): 44.2 ± 4.4 %; DNA content (%) S (HCT116 cells [14]; 48 h incubation, 1 µM): 14.9 ± 2.5%; DNA content (%) Sub-G0/G1 (HCT116 cells [14]; 48 h incubation, 1 µM): 18.3 ± 2.5%; IC50 [19]: 0.8 µM; IC50 [20]: 0.5 µM; IC50 [21]: 0.2 µM; IC50 (B16-F10 (mouse melanoma) [22]): 0.2 µM

Where two headings read alike, the source gives them in different places.
